We go through 29 molecules from the supplement of paper PMC12632987.

The labels stand for the following.
B1: GBRAP_160_3999 (protein)
chain: MEELEKLKKEIKEIFEETKKEMEGLTPEERLTLVKGMAGEVIQLVFESPAVSEETEDEIAELMDELVERVEANKDKPLEVFYELLDETLKKIFEILDKDE
B2: GBRAP_128_3399 (protein)
chain: SQEEKLEKAKELIDKIVEADVEEARKYARELVELLKEMDLETREKVAEYLEEKLPELTAEKLDVLADVLRENRPKDDPELANIVADMEVEALNEAEEKEE
B3: GBRAP_160_4222 (protein)
chain: SEVVEKLVEIFREKAREALELMKGESEEERRVVARVMEGEIILEAMELEGVTDEMEEVVDEKAREMAEELVEHYDWSEEELERLIEEKAEELREELEKLA
B4: GBRAP_160_4339 (protein)
chain: SERAEKLIKFIKEEFEKLKELIEGETIEQRRVLIEGTFGEIAMELAEDESVSDETVDKVLEIRDETIEYLKKNPDLTEEEIKELIDEAEKKIIEIIKESE
B5: GBRAP_184_5271 (protein)
chain: TVVDVELEAETGEEAIAALRAAAAAARAAGARLRVTILLKGASVEEAIALLALLAELRAEGVVEDAVVGIEGDWSEEEIDRLVEAADAAGVRLVIAIPEE
B6: GBRAP_11_2937 (protein)
chain: EKEKLKKAQELAKEAQELLKKIQKAGKLDEELLKKAQELLKKAAELAKELGLEEEQKDLELAQELLEEVQKAGKLDETKVAAAQALVFDVAHELEEKLEE
B7: GBRAP_26_5452 (protein)
chain: MEEKLEALRDRLVELADELLDPETAALLKVEVDNIVALAELELEEANGDLEKELAVVEEMLEDLEEALDDLEVPEEVKEKLLEAAREAAEEIKEYLKKKS
B8: GBRAP_160_4345 (protein)
chain: MERAERLIEEVREAAEEVIEAIDEVSVEEAAVIAAGEFGAVAMEAALDERYTDEEVDVVIEAMDEVIEFLKANKDASVEEIKEGIREITEKAIERIKEIA
B9: GBRAP_11_2661 (protein)
chain: KKEVLKEALELAKEAAETVEELIEKGVDNEELRKKAEELLKKLKELAKKYLSKAIQSEVEVAEELWKEAKADEENKEEYWKQLLASLRVLEGNLQLELDE
B10: GBRAP_14_3843 (protein)
chain: SEELRARLLAVVDRTVAALREIAPPEYEPRVEEFRRRLEAAVDEVLELGDLEEAERRLIEVAAATVEELFADLPETERAALRAEAENELALGFEEVEEEL
B11: GBRAP_160_4114 (protein)
chain: KEELVKTAKDNAKDVEETIEIMKDLSPEEAGNLAIVTLGQILLDASEHGEKFKEIEELAEKAIKKIEETRKTDPSKLKEVSLEELKKVLEALKKKAKELE
B12: GBRAP_128_3419 (protein)
chain: SMEEKVEEVRKLLEEMLTADKETQKELADRIFELILESDLETAEAMAEVILEMLPKFTAEQLDILADAGEKHLSKFTPEKQELVADVIVEALNLAEELEE
B13: GBRAP_122_2959 (protein)
chain: SESEERLKEALEKLEKAENKPLSEIVRTTMEELSKAKEEENKEKIIEKGAEIISKKLPKVSKEEVLKILKEALELMEKEGVTPEEAAAYADVEILELEME
B14: GBRAP_53_6412 (protein)
chain: MEEEIRELREEALRLAEEAARAGPEERERLVDRIGELLARLKEAGAPDEELTELAREIARRLKEAGAPDRALVRLAAHLAALGLEDATAAVAEEAVEELE
B15: GBRAP_26_5496 (protein)
chain: FIDEVLERLREELERILADESEDLRAAVIAEAEDLLLEAEEEIEENVDDEEKIEKAIEEAVEELREALRDFGLSEEKIEAIVEALRRALEEIAKHIKEEA
B16: GBRAP_160_4200 (protein)
chain: SEKVEKIIELMREEAERVIEAVPELSKEEVANFAAVEFGSVLMEAVEMGLENDEILDTIADAADKIVEFLKENENASDEEIKKGIREIVEKAIEEIKKIA
B17: GBRAP_11_2775 (protein)
chain: SKEKLEKIAELAKKAAELVDALIAAGTTDEKLRKELAEALKELKKLVEETDDEFLKKLVEIAEEEFEEAQADPANAEAHLKRMLAALRVLEGQTLLLLEE
B18: GBRAP_160_4584 (protein)
chain: SEELKKAKEIIDEEFEEAKEMIKGETAEQRATIVLGTGGEIIMELEELSKATDELLDYVDKIFDELAATILANPDLTEEETIALIEEARKKIKEALEKEF
B19: GBRAP_160_4150 (protein)
chain: SEELEKLIEEIKKIAEEAIKLMEGETAENAKTIARVALGEMVMLVESNEAVSDETEDEVGEIARKAEAYLKANPDLTVEEIKALLKKAAEEVIEVLKKEV
B20: GBRAP_128_3460 (protein)
chain: SVEEVAEYTAEKMEEMKEASLEEFRELATELAERLLTLSLEEVEAAVEVIEENLEELTAEKLEILAEVFDEALPQFSPEKAALVADVISTALLLAEEKEE
B21: GBRAP_153_3942 (protein)
chain: MEERERRLEEAKELADRIEEEGLPEELLLELARLIYSLDEEERLEVAKYLSTLSPETVYAIFLTLATKVPFSTEELLAMITELNEEQEAAALEALVEAQK
B22: GBRAP_184_5227 (protein)
chain: KLVNVAVEAETAEEAIEKSDKVIAEAKAKGEEVNLYVIGKNLSIEEVEKVAKYLSEKKKAGEIKDATLVVEDEKSEEEIDKLVEIADKYGIKLVIALSEE
B23: GBRAP_78_6597 (protein)
chain: EVEELLEKAIEELDKASKLAKQLPEEESNELLDELVDAMSYILEAIENGFDLELLEKALKKVEKAIELAKKTNHPESPKIIEELEKAKKYLEEAIKLVKK
B24: GBRAP_11_2645 (protein)
chain: KKETLEEAAKLAKEAAKAVEKLIKEGVDNEELIKEAEKLLEELTKLTEEHLSEAHKTDVEVAKELWKKFLEDKENAEEYAKQLLAALRVLEGNFLLERDE
B25: GBRAP_184_5069 (protein)
chain: ETLHETLEVRDLAEARAKMAALAARLADFRGDLVVHVEMPEADKEIARAVLDGLRAMLDAGYVTSATVGFDAEFSEELADFAIAEADRAGVKVVLALSDE
B26: GBRAP_78_6650 (protein)
chain: EVEELLEKALEVLGEAARQALKLPEEVRNEVLDYLVDAITYLHEAIEKGGDLEELEKALEYAEKALKIAKKEDTEEAKELAKLLEEAIKLLKEAIKKVKE
B27: GBRAP_160_4322 (protein)
chain: KEELEELEKRIKEIAEEAKKMIKGQSAEEKITIVKVALGDIILEVESNPAVSDELEDKVAEIADAAEAYLDAHPDLSEEEVIALLEEAVKKILELIKEEK
B28: GBRAP_160_4330 (protein)
chain: SERFEKLKEFIDEVFEEAKELIEGESLEQIKVIIRGAFGEIAMEFAEDESISDELIDFVLEIEDETLKTLDENPDLSLEEIKKLIEEAREKIIEELEKEE
B29: GBRAP_160_4631 (protein)
chain: SEKLKKAKEAIEEAEKFVLSLIPEVNVEQAANALETEFGSVILELLEEGLISEETADKMMEVVRKARDYMLAHPDLTEEELKALVRKTAEEIKKILEKEY

Over roughly 4,500 sequences, “median log2 fold change of GCK-ALFA target abundance (FLAG IP / Myc IP barcode read proportion)” has its median near 0.078; the lowest 2% begin near -0.6. The list shows a part of the results.

Sequence of GABARAP, O95166 (O95166 whole entry, the tested form may be a part): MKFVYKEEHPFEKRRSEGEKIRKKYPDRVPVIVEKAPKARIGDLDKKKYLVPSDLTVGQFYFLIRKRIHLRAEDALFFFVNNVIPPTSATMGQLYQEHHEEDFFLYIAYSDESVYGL

The target of the assay is GABARAP, O95166. Put plainly: median log2 fold change of GCK-ALFA target abundance (FLAG IP / Myc IP barcode read proportion) (log2 ratio); each designed protein is fused to an ALFA-tag nanobody in HEK293 cells to bring the named protein to FLAG-tagged glucokinase (GCK); Myc marks an untargeted standard; higher = target protein stabilised (more abundant). As to conditions: target protein: 3xFLAG-MCP-GCK-ALFA reporter; HEK293 landing pad (RPLP). Put shortly:
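Sequencing of reverse-transcribed, amplified circular RNA barcodes from anti-FLAG and anti-Myc immunoprecipitates provided the readout for an ALFA-nanobody-fused binder library recombined into HEK293 landing-pad cells. Those cells were induced with 2 μg mL^−1 doxycycline, transfected with a plasmid expressing a FLAG-tagged target and a Myc-tagged standard, and lysed after 48 h. Target abundance is the per-binder median log2 ratio of FLAG to Myc barcode read proportions. Only barcodes at a proportion of ≥10^−7 in both replicates and binders with ≥3 barcodes per replicate were kept, with a 10^−6 pseudocount added before the two replicates were pooled.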
Regarding B1, the “median log2 fold change” value is -0.162.
Turning to B2, the “median log2 fold change” value turned out to be 0.00948.
For B3, the “median log2 fold change” value is -0.387.
As to B4, the “median log2 fold change” value is 0.103.
To B5 belongs -0.324; to B6, 0.139.
As for B7, the “median log2 fold change” value is -0.454.
As to B8, the “median log2 fold change” value is -0.347.
As for B9, the “median log2 fold change” value is 0.256.
Consider B10, for which the “median log2 fold change” value is 0.159.
For the molecule B11, the “median log2 fold change” value was -0.00375.
With B12, the “median log2 fold change” value is -0.219.
With B13, the “median log2 fold change” value came to 0.211.
With B14, the “median log2 fold change” value was 0.147.
In the case of B15, the “median log2 fold change” value is 0.00749.
Consider B16, for which the “median log2 fold change” value was -0.354.
Turning to B17, the “median log2 fold change” value is 0.0543.
Turning to B18, the “median log2 fold change” value turned out to be 0.109.
Consider B19, for which the “median log2 fold change” value is -0.016.
To B20 belongs 0.0938.
For the molecule B21, the “median log2 fold change” value was determined as 0.0949.
To B22 belongs 0.216; to B23, 0.108.
Regarding B24, the “median log2 fold change” value came to 0.24.
On to B25, for which the “median log2 fold change” value worked out at 0.000447.
Take B26: the “median log2 fold change” value is -0.129.
Consider B27, for which the “median log2 fold change” value was 0.161.
Turning to B28, the “median log2 fold change” value was -0.166.
Take B29: the “median log2 fold change” value is 0.0849.
